Source: PubChem BioAssay AID1347165 (National Center for Advancing Translational Sciences (NCATS), 2019)
Screen size: about 220,000 compounds; about 5,700 (2.6%) were called active. Inconclusive results, whose numbers are uncertain, are shown with a selection of clear calls. The call rests on the fitted dose curve; in most records, active means well fitted inhibition curve with a large enough effect; inconclusive means small, poorly fitted or top-dose-only effect; inactive means no such curve, though single readings can be large or run the other way. A potency beside an inconclusive call is a rough fit, not a confirmed value.
Further: nearly all actives have a fitted effect of over 70% in size.
Potency means the concentration at half of the fitted maximal effect; tags describe the fitted curve by direction and shape.

These molecules were tested against Lysine-specific demethylase 5B (Homo sapiens) (UniProt Q9UGL1) (assay: Primary screen for KDM5B Histone Demethylases FDH-coupled qHTS). Settings: FDH-coupled NADH fluorescence (FDH is formaldehyde dehydrogenase); series mostly up to 57.7 µM.
UniProt Q9UGL1, sequence (Q9UGL1 whole entry, looked up): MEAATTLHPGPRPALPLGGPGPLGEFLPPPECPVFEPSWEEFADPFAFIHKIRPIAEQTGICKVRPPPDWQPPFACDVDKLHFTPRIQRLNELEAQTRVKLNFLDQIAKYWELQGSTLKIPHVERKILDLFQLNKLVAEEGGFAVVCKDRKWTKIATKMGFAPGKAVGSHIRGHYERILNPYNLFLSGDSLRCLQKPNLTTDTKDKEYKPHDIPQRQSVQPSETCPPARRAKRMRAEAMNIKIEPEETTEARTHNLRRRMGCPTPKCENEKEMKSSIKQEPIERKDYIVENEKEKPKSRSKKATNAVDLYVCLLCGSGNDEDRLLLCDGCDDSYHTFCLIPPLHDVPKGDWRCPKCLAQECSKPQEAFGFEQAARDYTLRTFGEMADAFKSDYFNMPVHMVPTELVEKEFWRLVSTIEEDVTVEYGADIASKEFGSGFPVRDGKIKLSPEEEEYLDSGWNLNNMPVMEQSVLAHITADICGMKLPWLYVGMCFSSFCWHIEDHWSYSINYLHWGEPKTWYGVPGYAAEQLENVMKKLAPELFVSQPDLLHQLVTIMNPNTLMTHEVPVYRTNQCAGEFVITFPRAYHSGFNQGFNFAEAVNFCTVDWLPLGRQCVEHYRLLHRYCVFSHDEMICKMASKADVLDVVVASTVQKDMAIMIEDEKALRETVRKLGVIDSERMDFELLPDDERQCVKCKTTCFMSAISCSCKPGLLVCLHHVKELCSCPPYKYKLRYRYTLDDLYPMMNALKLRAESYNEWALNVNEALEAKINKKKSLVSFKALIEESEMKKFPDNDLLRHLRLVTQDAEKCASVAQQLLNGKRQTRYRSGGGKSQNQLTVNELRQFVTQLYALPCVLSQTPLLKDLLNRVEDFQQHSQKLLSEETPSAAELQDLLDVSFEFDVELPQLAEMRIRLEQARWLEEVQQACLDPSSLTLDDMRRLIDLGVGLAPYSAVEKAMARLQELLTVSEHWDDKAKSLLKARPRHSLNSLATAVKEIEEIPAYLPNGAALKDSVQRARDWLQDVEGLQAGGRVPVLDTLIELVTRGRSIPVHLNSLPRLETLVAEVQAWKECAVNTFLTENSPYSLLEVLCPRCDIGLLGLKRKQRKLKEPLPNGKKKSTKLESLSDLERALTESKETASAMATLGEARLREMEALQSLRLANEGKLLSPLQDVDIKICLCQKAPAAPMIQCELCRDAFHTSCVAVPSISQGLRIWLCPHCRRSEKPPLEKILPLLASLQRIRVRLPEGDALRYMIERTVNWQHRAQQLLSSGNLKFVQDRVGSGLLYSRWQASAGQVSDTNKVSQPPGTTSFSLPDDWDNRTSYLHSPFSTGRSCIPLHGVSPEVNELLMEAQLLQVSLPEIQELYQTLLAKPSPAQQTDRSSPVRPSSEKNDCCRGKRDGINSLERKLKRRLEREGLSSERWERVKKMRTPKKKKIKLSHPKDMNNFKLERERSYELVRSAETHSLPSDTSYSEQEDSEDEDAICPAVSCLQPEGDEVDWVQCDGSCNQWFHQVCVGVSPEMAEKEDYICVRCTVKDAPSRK
In short: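 Coupled FDH/NAD⁺ fluorescence readout. KDM5BΔAP 200 nM final; compound titration, 10 min RT preincubation; substrate mix 12.5 µM H3K4me3, 25 µM 2-OG, 50 µM Fe(II), 100 µM ascorbate, 0.25 mM NAD⁺, 0.25 U/mL FDH; ΔRFU over 30 min.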
With COc1ccc2oc(-c3ccc(NC(=O)c4ccccc4C)cc3)nc2c1 the Potency was inconclusive: 22.4 µM [inhibitor, partial curve, poor fit]. For Cc1ccc(N2C(=O)[C@@H]3[C@H](C2=O)[C@H]2C=CC=NN2[C@@H]3C(=O)Nc2ccccc2)cc1, the Potency was inconclusive: 35.5 µM [inhibitor, partial curve, poor fit]. In the case of CCOCC1(C)COc2ccc(C(=O)NCc3cc(OC)cc(OC)c3)cc2N1 (stereo unspecified), the Potency is reported as active: 31.6 µM. With COc1cc(F)c(CN2CCC3(CC2)C(C(=O)O)CC(=O)N3C)cc1OC (stereo unspecified) the Potency was “inactive”. For COc1cc(C2CC(=O)Nc3nc(-c4ccccc4)[nH]c(=O)c32)cc(OC)c1O (stereo unspecified), the Potency was “inactive”. O=S1(=O)c2c(NCc3ccco3)cccc2Oc2ccccc2CN1Cc1cn(Cc2ccc(F)cc2)nn1 was tested, and the Potency was inconclusive: 22.4 µM [inhibitor, partial curve, poor fit]. CC(=O)N1CCN(c2ncccc2CNCc2ccc(CC(C)C)cc2)CC1 was tested, and the Potency was “inactive”. With O=C(NCC1(N2CCCCC2)CCCCC1)c1cccc(NC(=O)c2cccs2)c1 the Potency was “inactive”. In the case of CC(C)(C)C1C/C(=C/c2cccs2)c2nc3ccccc3c(C(=O)O)c2C1 (stereo unspecified), the Potency is reported as “inactive”. With Cc1ccc(-n2cccc2CC(=O)N(C)Cc2ccco2)cc1 the Potency was inconclusive: 31.6 µM [inhibitor, partial curve, poor fit]. COc1cccc(CC(=O)NC2CCN(C(=O)c3cc4c(=O)[nH]c(C)cn4n3)CC2)c1 was tested, and the Potency was inconclusive: 28.2 µM [inhibitor, single point]. With O=C(CCN1CCC(c2ccccc2)C1)c1cccc2ccccc12 (stereo unspecified) the Potency was inconclusive: 22.4 µM [inhibitor, partial curve, poor fit]. In the case of CC1(C)CC(=O)C2=C(C1)Nc1cc3c(cc1C2c1ccc(OCC(=O)O)cc1)OCO3 (stereo unspecified), the Potency is reported as inconclusive: 25.1 µM [inhibitor, partial curve, poor fit]. With CC1=C[C@@H](CNc2ccccn2)[C@H](C(C)C)C[C@H]1Cc1nnc(-c2ccc(C)cc2)o1 the Potency was “inactive”. In the case of COCCn1c(-c2ccc(Cl)cc2)nc2oc3cc(OC)ccc3c(=O)c2c1=O, the Potency is reported as inconclusive: 44.7 µM [inhibitor, partial curve, poor fit]. In the case of C=CCC1(C(=O)O)CCCN(Cc2cnc(NCc3ccccc3)nc2)C1 (stereo unspecified), the Potency is reported as inconclusive: 20 µM [inhibitor, partial curve]. With CCOc1ccc2oc(=O)cc(CN3CCN(c4ccc(Cl)cc4)CC3)c2c1 the Potency was inconclusive: 15.8 µM [inhibitor, partial curve, poor fit]. For CCc1c(C)c2ccc(O)c(CN3CCN(c4ccccc4)CC3)c2oc1=O, the Potency was inconclusive: 3.98 µM [inhibitor, full curve, poor fit]. COc1ccc(-c2cc(C(=O)NCC[S+](C)(=O)[O-])c3c(c2)N(C)CCO3)cn1 was tested, and the Potency was active: 31.6 µM. In the case of Cc1sc2nc(CN3CCOCC3)nc(N(C)CC(=O)Nc3cccc(F)c3)c2c1C, the Potency is reported as “inactive”. O=C1C(c2ccccc2)=S=C2c3ccccc3C=CN12 was tested, and the Potency was inconclusive: 14.1 µM [inhibitor, partial curve, poor fit]. For Cc1cccc(N2CCN(C(=O)c3ccc4c(c3)c(C)c(C)n4C)CC2C)c1 (stereo unspecified), the Potency was inconclusive: 11.2 µM [inhibitor, partial curve, poor fit]. In the case of CN(C)c1cccc(-c2cn(C)c(=O)n3cc(COc4ccc(Cl)cc4)nc23)c1, the Potency is reported as active: 25.1 µM. For COCC(C)NC(=O)C1=CC(c2cccs2)=NS(=O)(=O)N1C (stereo unspecified), the Potency was inconclusive: 22.4 µM [inhibitor, single point]. With CCOc1ccccc1CNC(=O)C1CCCN(S(=O)(=O)c2ccc3c(ccn3C)c2)C1 (stereo unspecified) the Potency was inconclusive: 35.5 µM [inhibitor, single point]. In the case of CCC(CC)NC(=O)c1ccc(-c2nnc3ccc(NC(=O)C4CCC4)cn23)cc1, the Potency is reported as active: 10 µM. In the case of Cc1ccc(-c2nnc(Nc3cccc(C(F)(F)F)c3)c3ccccc23)cc1S(=O)(=O)N1CCOCC1, the Potency is reported as inconclusive: 1.41 µM [inhibitor, full curve, poor fit]. In the case of Cc1ccc(-c2nc(CN3CCN(C(=O)c4ccco4)CC3)c(C)o2)cc1, the Potency is reported as “inactive”. For O=C(CNCc1ccco1)Nc1cccc(S(=O)(=O)N2CCCCC2)c1, the Potency was inconclusive: 17.8 µM [inhibitor, partial curve, poor fit]. For O=C(c1ccc(CS(=O)(=O)c2c(Cl)cccc2Cl)o1)N1CCN(c2ccccc2)CC1, the Potency was inconclusive: 2.51 µM [inhibitor, full curve, poor fit]. CCOCCOC1CCN(C(=O)c2ccc3c(c2)c2ccccc2n3CC)CC1 was tested, and the Potency was inconclusive: 20 µM [inhibitor, partial curve, poor fit]. COc1ccc(C(=O)/C=C/Nc2ccc(S(=O)(=O)Nc3nc(C)cc(C)n3)cc2)c(OC)c1 was tested, and the Potency was inconclusive: 15.8 µM [inhibitor, partial curve, poor fit]. In the case of COc1ccc2c(CC(=O)O)cc(=O)oc2c1, the Potency is reported as inconclusive: 28.2 µM [inhibitor, partial curve, poor fit]. For Cn1ccnc1-c1ccc(N2CCC(C(O)Cc3ccccc3)CC2)nn1 (stereo unspecified), the Potency was active: 28.2 µM. O=C(O)C[C@@H]1CCN(C(=O)C2CC2)C[C@@H]1CCN1CCN(c2ccccn2)CC1 was tested, and the Potency was inconclusive: 31.6 µM [inhibitor, single point]. With CSCCC(=O)N1CCOC(Cc2cccc3ccccc23)C1 (stereo unspecified) the Potency was “inactive”. O=C1CC(c2noc(-c3ccc4c(c3)OCO4)n2)CN1c1ccc(F)c(Cl)c1 (stereo unspecified) was tested, and the Potency was inconclusive: 15.8 µM [inhibitor, partial curve]. CCOc1ccc(C(=O)Nc2ccc3oc(-c4ccccc4C)nc3c2)cc1 was tested, and the Potency was “inactive”. For O=S(=O)(Nc1nc2ccccc2nc1Nc1ccc(F)cc1)c1cccc(Cl)c1, the Potency was “inactive”. For CCNC(=O)N1CC(C(=O)NCc2cccc(C)c2)CC(c2ccc(F)c(C)c2)C1 (stereo unspecified), the Potency was inconclusive: 17.8 µM [inhibitor, partial curve, poor fit]. With O=C(NC1CCCCC1)C1(c2cccc(Cl)c2)CCC1 the Potency was “inactive”. With CSc1nc2ccc(NC(=O)c3nn(C)c(=O)c4ccccc34)cc2s1 the Potency was “inactive”. CN1c2cc(C(=O)NCc3ccncc3)ccc2C(=O)N2CCCCC21 (stereo unspecified) was tested, and the Potency was inconclusive: 25.1 µM [inhibitor, partial curve, poor fit]. In the case of CCOc1ccc(-c2cccc(NS(=O)(=O)c3cc(OC)ccc3OC)c2)nn1, the Potency is reported as “inactive”. For Cn1c(=O)c2c(nc(Cl)n2CCC#N)n(C)c1=O, the Potency was “inactive”. For Cc1ccc(NC(=O)c2cc(=O)c3ccc(C)c(C)c3o2)cc1, the Potency was “inactive”. COCCNC(=O)c1cc(-c2ccc(F)cc2OC)cc2ncn(C)c12 was tested, and the Potency was inconclusive: 39.8 µM [inhibitor, partial curve, poor fit]. For COc1ccc(Cl)cc1C(=O)NCc1nnc2cc(-c3nc(C4CC4)no3)ccn12, the Potency was inconclusive: 3.98 µM [inhibitor, single point]. With O=C(CN1CCN(c2ccc(Cl)cc2)CC1)c1ccccc1 the Potency was inconclusive: 25.1 µM [inhibitor, partial curve, poor fit]. For COc1ccc(C(=O)NCC(c2ccc3c(c2)OCO3)N2CCN(c3ccc(F)cc3)CC2)cc1 (stereo unspecified), the Potency was inconclusive: 31.6 µM [inhibitor, single point]. For CC(=O)Nc1ccc(NC(=O)C2CCN(c3nc4ccccc4nc3OC(C)C)CC2)cc1, the Potency was inconclusive: 39.8 µM [inhibitor, single point]. For Cc1cc(N2C(=O)C(O)=C(C(=O)c3cc4ccccc4o3)C2c2ccc(F)cc2)no1 (stereo unspecified), the Potency was “inactive”. With CC(=O)N1CCC(N2C[C@@H]3C[C@H]2C(=O)N(C)c2ccccc2O3)CC1 the Potency was inconclusive: 39.8 µM [inhibitor, single point]. In the case of N#Cc1ccc(Cn2cnc3c(Cl)cc(Cl)cc3c2=O)cc1, the Potency is reported as “inactive”. CCCCOc1ccc(C(=O)NC(=S)NCCCO)cc1Br was tested, and the Potency was “inactive”. With Cc1ccccc1CC(=O)N1CCC2(CC1)N(C)C(=O)CS2(=O)=O the Potency was inconclusive: 10 µM [inhibitor, partial curve, poor fit]. With S=C(NCCc1ccc(Cl)cc1Cl)NC1CC2CCC1C2 (stereo unspecified) the Potency was “inactive”. O=C(c1cc(-c2ccc(-c3ccccc3)cc2)nc2ccccc12)N1CCN(c2ncccn2)CC1 was tested, and the Potency was inconclusive: 39.8 µM [inhibitor, single point]. For Cc1ccc(S(=O)(=O)/C(C#N)=C\c2ccc(OCCC(C)C)cc2)cc1, the Potency was inconclusive: 35.5 µM [inhibitor, single point]. Cc1cc(C)cc(C(=O)NCc2nnc3c(-c4nc(C)no4)cccn23)c1 was tested, and the Potency was inconclusive: 15.8 µM [inhibitor, partial curve, poor fit]. With COc1ccccc1CN1CCC(N2Cc3cnc(C)n3C2=O)CC1 the Potency was inconclusive: 31.6 µM [inhibitor, partial curve]. In the case of CCCN1C(=O)C(NC(=O)c2ccc(C(C)(C)C)cc2)(C(F)(F)F)C(C(=O)OC)=C1C (stereo unspecified), the Potency is reported as “inactive”. In the case of CC(C)CNC(=O)C1CC(=O)N(c2n[nH]c3cc(Br)ccc23)C1 (stereo unspecified), the Potency is reported as inconclusive: 35.5 µM [inhibitor, single point]. N#Cc1ccc(CN2CCCCCNC(=O)[C@@H]3CCC[C@@H]32)cc1 was tested, and the Potency was inconclusive: 25.1 µM [inhibitor, partial curve, poor fit]. For CC(C)C[C@@H]1N[C@H](C(=O)N2CCOCC2)Cc2cn(Cc3nccn3C)c3cccc1c23, the Potency was inconclusive: 28.2 µM [inhibitor, single point]. Cc1ccsc1CN1CCc2[nH]nc(C(=O)N(C)C)c2C1 was tested, and the Potency was “inactive”.
